This is an account of results in article PMC8339588.

Protein sequences, listed by entry. Tags and fused reporters are not part of them. Lines headed by an entry give the natural chain unless they say otherwise; changes in a name come on top. Chains listed by the source or under a name are the forms on record and can include a tag or linker.
UniProt P51148: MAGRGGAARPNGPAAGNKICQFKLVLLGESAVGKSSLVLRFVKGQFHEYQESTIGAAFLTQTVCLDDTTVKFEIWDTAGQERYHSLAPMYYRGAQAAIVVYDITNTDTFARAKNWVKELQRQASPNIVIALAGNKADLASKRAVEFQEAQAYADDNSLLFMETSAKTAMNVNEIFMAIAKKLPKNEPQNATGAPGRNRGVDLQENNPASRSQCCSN
Rab5CΔ (50–58) (pCMV-HA-Rab5CΔ (50–58)) (P51148, form named): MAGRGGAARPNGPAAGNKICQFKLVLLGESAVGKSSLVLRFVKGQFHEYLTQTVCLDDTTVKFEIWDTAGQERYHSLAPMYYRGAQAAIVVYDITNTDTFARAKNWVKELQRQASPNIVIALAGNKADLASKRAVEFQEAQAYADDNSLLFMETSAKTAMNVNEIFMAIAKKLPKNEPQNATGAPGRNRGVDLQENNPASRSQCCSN

Where two headings read alike, the source gives them in different places. Results are given in words; binding and its absence hold for the method and conditions named. Binding seen in cells or lysates may run through a third protein. Some results given as binding are weak or reduced against the parent protein; the word gives no strength. For part of these data: Tags and fused reporters may be left off the sequences shown.

What all share (test): co-IP; HEK293T cells cotransfected with the two tagged plasmids (3 ug each) for 48 h; lysed in Nonidet P-40 buffer (150 mM NaCl, 1 mM EDTA, 1% NP-40); precipitated with IgG (control) or the indicated antibodies on Protein A/G Plus-Agarose; washed three times with 500 mM NaCl lysis buffer …
The target in assay [1] is T1, TBC1D16 (pCMV-Flag-TBC1D16) (UniProt Q8TBP0).
T1 sequence: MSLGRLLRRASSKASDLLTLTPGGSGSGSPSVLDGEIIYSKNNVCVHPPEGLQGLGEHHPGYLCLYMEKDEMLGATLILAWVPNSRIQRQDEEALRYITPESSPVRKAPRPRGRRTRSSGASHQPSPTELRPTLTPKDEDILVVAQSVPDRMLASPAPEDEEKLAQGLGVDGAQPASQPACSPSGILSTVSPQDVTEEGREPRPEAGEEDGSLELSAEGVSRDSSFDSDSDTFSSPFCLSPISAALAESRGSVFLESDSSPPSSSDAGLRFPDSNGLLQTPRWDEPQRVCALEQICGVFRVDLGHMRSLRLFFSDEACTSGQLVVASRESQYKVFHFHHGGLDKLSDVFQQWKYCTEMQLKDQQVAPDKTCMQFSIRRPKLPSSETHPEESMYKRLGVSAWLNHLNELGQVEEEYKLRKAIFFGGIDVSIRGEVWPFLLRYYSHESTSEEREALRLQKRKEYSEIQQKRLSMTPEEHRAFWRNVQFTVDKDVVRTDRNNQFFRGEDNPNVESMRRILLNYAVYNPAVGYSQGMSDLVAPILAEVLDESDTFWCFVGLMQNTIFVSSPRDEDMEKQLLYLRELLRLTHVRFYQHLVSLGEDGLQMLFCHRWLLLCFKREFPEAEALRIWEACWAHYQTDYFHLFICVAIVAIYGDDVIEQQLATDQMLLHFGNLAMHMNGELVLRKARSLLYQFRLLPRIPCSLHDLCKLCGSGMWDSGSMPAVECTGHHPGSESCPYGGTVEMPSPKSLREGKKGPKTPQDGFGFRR

Another assay concerns the target T2, TBC1D16-Q531A (UniProt Q8TBP0).
T2 sequence: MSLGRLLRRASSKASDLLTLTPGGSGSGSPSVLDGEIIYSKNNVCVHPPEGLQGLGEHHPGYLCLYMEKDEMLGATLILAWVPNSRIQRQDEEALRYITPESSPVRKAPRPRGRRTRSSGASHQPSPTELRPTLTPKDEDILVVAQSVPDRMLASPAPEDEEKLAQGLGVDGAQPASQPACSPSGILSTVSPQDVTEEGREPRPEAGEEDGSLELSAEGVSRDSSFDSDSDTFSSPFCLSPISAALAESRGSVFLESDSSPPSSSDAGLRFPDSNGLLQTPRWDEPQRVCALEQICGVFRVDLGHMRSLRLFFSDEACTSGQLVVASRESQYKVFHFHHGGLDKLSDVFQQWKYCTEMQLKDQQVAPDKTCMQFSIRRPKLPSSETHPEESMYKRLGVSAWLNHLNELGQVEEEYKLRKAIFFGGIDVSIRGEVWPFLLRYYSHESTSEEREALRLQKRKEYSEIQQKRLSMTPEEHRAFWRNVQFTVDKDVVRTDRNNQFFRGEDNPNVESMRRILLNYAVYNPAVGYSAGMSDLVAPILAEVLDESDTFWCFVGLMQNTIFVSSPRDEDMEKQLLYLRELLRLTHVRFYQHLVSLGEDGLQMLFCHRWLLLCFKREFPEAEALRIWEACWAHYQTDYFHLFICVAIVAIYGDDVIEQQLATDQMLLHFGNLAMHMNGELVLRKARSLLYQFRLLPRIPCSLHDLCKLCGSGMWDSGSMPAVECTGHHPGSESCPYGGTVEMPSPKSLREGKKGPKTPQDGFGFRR

For another assay, the target named is T3, TBC1D16-R494A (UniProt Q8TBP0).
T3 sequence: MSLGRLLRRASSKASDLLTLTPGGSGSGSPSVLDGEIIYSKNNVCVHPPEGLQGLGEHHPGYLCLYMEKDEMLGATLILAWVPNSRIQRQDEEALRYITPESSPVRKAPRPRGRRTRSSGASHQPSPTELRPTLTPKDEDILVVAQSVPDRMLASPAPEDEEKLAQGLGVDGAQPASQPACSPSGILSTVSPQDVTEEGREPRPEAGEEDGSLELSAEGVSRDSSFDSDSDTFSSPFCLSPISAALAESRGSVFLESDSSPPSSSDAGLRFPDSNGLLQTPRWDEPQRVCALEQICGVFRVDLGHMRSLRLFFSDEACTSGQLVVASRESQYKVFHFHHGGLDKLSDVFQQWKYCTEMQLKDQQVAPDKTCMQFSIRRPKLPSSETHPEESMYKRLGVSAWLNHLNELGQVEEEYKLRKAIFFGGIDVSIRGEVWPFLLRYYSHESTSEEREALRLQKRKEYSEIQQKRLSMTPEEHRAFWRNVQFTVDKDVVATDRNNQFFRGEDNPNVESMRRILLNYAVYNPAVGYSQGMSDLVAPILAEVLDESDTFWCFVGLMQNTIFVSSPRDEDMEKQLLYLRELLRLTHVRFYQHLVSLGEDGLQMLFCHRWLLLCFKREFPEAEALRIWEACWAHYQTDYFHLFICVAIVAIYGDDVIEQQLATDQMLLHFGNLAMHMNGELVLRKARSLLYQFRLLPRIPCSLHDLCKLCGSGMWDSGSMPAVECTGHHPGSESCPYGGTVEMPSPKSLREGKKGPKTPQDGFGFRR

Another assay has as its target T4, TBC1D16-R431A (UniProt Q8TBP0).
T4 sequence: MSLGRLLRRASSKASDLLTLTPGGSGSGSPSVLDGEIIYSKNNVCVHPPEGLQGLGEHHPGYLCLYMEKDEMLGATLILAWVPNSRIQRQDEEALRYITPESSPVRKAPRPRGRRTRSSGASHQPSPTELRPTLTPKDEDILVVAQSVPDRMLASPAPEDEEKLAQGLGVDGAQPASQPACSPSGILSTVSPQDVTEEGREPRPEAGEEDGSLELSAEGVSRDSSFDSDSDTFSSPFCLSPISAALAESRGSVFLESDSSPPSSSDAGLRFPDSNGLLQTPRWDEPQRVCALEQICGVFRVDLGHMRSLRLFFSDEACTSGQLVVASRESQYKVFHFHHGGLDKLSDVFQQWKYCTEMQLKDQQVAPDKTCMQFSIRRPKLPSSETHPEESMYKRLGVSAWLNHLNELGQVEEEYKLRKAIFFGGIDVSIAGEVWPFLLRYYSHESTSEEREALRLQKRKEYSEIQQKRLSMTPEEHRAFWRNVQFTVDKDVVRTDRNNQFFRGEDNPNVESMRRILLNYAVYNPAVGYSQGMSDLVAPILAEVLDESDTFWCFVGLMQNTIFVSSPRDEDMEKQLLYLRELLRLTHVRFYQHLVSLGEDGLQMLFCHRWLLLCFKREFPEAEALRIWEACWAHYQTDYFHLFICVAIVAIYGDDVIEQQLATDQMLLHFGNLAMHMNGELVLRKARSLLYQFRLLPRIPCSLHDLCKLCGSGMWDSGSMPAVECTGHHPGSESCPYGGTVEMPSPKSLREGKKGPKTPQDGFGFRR

In assay [2] the target is T1, TBC1D16 (pCMV-Flag-TBC1D16). The source holds these as a separate data set.
The target of another assay is Rab5C (pCMV-HA-Rab5C) (UniProt P51148).

Turning to “Rab5CΔ (50–58) (pCMV-HA-Rab5CΔ (50–58)) (from UniProt P51148 1-216)”, the binding result in assay [1] is reported as “no binding”.

In the case of “Rab5C (pCMV-HA-Rab5C) (from UniProt P51148 1-216)”, the binding result with TBC1D16-Q531A is recorded as “no binding”; with TBC1D16-R494A, “no binding”; in assay [1], “binds”; with TBC1D16-R431A, “binds”.

B1: PFV Bet (pCMV-HA-Bet) (protein, UniProt P89873 1-482)
chain: MDSYEKEESVASTSGIQDLQTLSELVGPENAGEGELTIAEEPEENPRRPRRYTKREVKCVSYHAYKEIEDKHPQHIKLQDWIPTPEEMIAQKVQNQDLGTILSFDVTCLKSITSLGRNDPGDDPSIMSHVLPVVTPWPMSQDHYAPTLFGILDRYYQGYLKSPATYQTWKFTCQVDPSGKRFMETQFWVPPLGQVNIQFYKNYQILTCCQAVDPFANIFHGTDEEMFDIDSGPDVWCSPSLCFKVIYEGAMGQKQEQKTWLCRLGHGHRMGACDYRKVDLYAMRQGKENPYGDRGDAALQYAYQVKRGCKAGCLASPVLNYKALQFHRTIMADFTNPRIGEGHLAHGYQAAMEAYGPQRGSNEERVWWNVTRNQGKQGGEYYREGGEEPHYPNTPAPHRRTWDERHKVLKLSSFATPSDIQRWTTKALPYGWKVVTESGNDYTSRRKIRTLTEMTQDEIRKRWESGYCDPFIDSGSDSDGPF
With B1, the binding entry in assay [2] is “no binding”.

B2: PFV Bet (pCMV-His-Bet) (protein, UniProt P89873 1-482)
chain: MDSYEKEESVASTSGIQDLQTLSELVGPENAGEGELTIAEEPEENPRRPRRYTKREVKCVSYHAYKEIEDKHPQHIKLQDWIPTPEEMIAQKVQNQDLGTILSFDVTCLKSITSLGRNDPGDDPSIMSHVLPVVTPWPMSQDHYAPTLFGILDRYYQGYLKSPATYQTWKFTCQVDPSGKRFMETQFWVPPLGQVNIQFYKNYQILTCCQAVDPFANIFHGTDEEMFDIDSGPDVWCSPSLCFKVIYEGAMGQKQEQKTWLCRLGHGHRMGACDYRKVDLYAMRQGKENPYGDRGDAALQYAYQVKRGCKAGCLASPVLNYKALQFHRTIMADFTNPRIGEGHLAHGYQAAMEAYGPQRGSNEERVWWNVTRNQGKQGGEYYREGGEEPHYPNTPAPHRRTWDERHKVLKLSSFATPSDIQRWTTKALPYGWKVVTESGNDYTSRRKIRTLTEMTQDEIRKRWESGYCDPFIDSGSDSDGPF
As to B2, in the assay with Rab5C (pCMV-HA-Rab5C), the binding result is “no binding”.

B3: PFV Tas (pCMV-Myc-Tas) (protein, UniProt P14353 1-300)
chain: MDSYEKEESVASTSGIQDLQTLSELVGPENAGEGELTIAEEPEENPRRPRRYTKREVKCVSYHAYKEIEDKHPQHIKLQDWIPTPEEMSKSLCKRLILCGLYSAEKASEILRMPFTVSWEQSDTDPDCFIVSYTCIFCDAVIHDPMPIRWDPEVGIWVKYKPLRGIVGSAVFIMHKHQRNCSLVKPSTSCSEGPKPRPRHDPVLRCDMFEKHHKPRQKRPRRRSIDNESCASSSDTMANEPGSLCTNPLWNPGPLLSGLLEESSNLPNLEVHMSGGPFWEEVYGDSILGPPSGSGEHSVL
With B3, the binding result (in assay [2]; with Rab5C (pCMV-HA-Rab5C)) was “no binding” in each case.
